Results published in PubChem BioAssay AID938 (National Center for Advancing Translational Sciences (NCATS), 2007).
Where “and” joins values, the source holds several entries; their conditions need not be identical. Equal values may be shown once. The campaign covered roughly 73,000 compounds. About 1,800 (2.5%) were called active. Inconclusive means that the source gave no clear call. Such entries were picked first, then a sample of the others. Calls come from the whole dose curve; as a rule, active = well fitted activation curve with a large enough effect; inconclusive = small, poorly fitted or top-dose-only effect; inactive = no such curve, though single readings can be large or run the other way. Potencies of inconclusive entries are left out as doubtful fits.

Assay: qHTS Assay for Agonists of the Thyroid Stimulating Hormone Receptor: Activators of Intracellular cAMP Concentrations in Parental HEK 293; note: nearly all actives have a fitted effect of over 55% in size; for activation: % of control where 0% means no effect
Conditions: parental HEK293 CNG cAMP sensor, membrane potential fluorescence; activation: at 57.1 µM (top of the series) unless noted
In short: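 Parental HEK 293 cells stably expressing a modified CNG channel (no TSHR) report cAMP rise as membrane depolarization. Membrane potential dye with 100 uM RO 20-1724 was loaded for 60 min at room temperature, then compound added for 30 min; fluorescence read at 590 nm.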
Potency is the fitted concentration of half-maximal effect; tags give direction and shape of the fitted curve.

Row | Compound | Potency | activation
1 | CC1=C(C(=O)OCc2ccccc2)C(c2ccc(Cl)cc2)NC(=O)N1CCCCCC(=O)O (configuration not stated) | inconclusive [activator, partial curve] | –
2 | N#CCCn1c(=O)c(-c2ccc(Cl)cc2)nc2cnc(N3CCNCC3)nc21 | inactive | –
3 | CCN1C(=S)SC(=O)C1=C1C=C(C)N(Cc2ccco2)C(C)=C1 | inactive | –
4 | CCCCC1CC1C(=O)Nc1ncc2c(n1)CC(C)(C)CC2=O (configuration not stated) | inconclusive [activator, partial curve] | –
5 | Cc1ccc2oc(=O)cc(CN3CCC(C)CC3)c2c1 | inconclusive [activator, partial curve] | –
6 | Cc1cnc(CNc2ncnc3ccc(-c4ccoc4)cc23)cn1 | inconclusive [activator, single point] | –
7 | COc1ccc(C(c2nnnn2Cc2ccccc2)N2CCN(C(=O)c3ccco3)CC2)cc1OC (configuration not stated) | inconclusive [activator, single point] | –
8 | O=S(=O)(c1cccc2cccnc12)N1CCc2ccccc21 | inconclusive [activator, single point] | –
9 | Clc1ccc(OCc2nn3c(-c4ccco4)nnc3s2)cc1 | inconclusive [activator, single point] | –
10 | CC(NC(=O)c1cn(C)c2ccc(S(=O)(=O)N3CCCC3)cc2c1=O)c1ccc2c(c1)OCCO2 (configuration not stated) | inconclusive [activator, full curve, poor fit] | –
11 | Cc1ccc(S(=O)(=O)n2ccnc2)cc1C | active: 20 µM | –
12 | CC(=O)/C(C)=N\O | inconclusive [activator, single point] | –
13 | Cc1ccc(-n2c3c(cc(C(=O)NCc4ccco4)c2=O)C(=O)CC(C)(C)C3)cc1 | – | inactive: 21.1% [at 11.4 µM]
14 | CC(O)c1nc2ccccc2n1Cc1nnc(-c2ccc(Cl)cc2)o1 (configuration not stated) | inactive | –
15 | COc1ccc(C2CC(=O)c3cnc(N4CCN(Cc5ccccc5)CC4)nc3C2)cc1 (configuration not stated) | inconclusive [activator, partial curve] | –
16 | Cc1cccc(CNc2cc(-c3ccc(N(C)C)cc3)ncn2)c1 | inconclusive [activator, partial curve] | –
17 | OCCN(CCO)CC(O)Cn1c2ccccc2c2ccccc21 (configuration not stated) | inconclusive [activator, partial curve] | –
18 | COc1cccc(C2C(C(=O)OCc3ccccc3)=C(C)Nc3ncnn32)c1OC (configuration not stated) | inconclusive [activator, single point] | –
19 | CCOC(=O)CC(=O)CSc1nc(-c2cccnc2)cc(C)c1C#N | inactive | –
20 | COc1ccc(S(=O)(=O)N2CCCN(CCC(=O)Nc3cccc(C(F)(F)F)c3)CC2)cc1 | inconclusive [activator, single point] | –
21 | COc1cccc(-c2nc(NCc3ccc(OC)cc3OC)c3ccccc3n2)c1 | inconclusive [activator, partial curve] | –
22 | Cn1c(=O)[nH]c(=O)c2c1nc(SCCN1CCCCC1)n2Cc1ccccc1 | inconclusive [activator, single point] | –
23 | COc1ccccc1-c1cncnc1NCc1cnc(C)cn1 | inconclusive [activator, single point] | –

Row | Compound | Potency | activation
24 | COc1ccc(OCc2nn3c(-c4cccc(OC)c4)nnc3s2)cc1 | inconclusive [activator, partial curve] | –
25 | CC(=O)NC(CCS(C)(=O)=O)C(=O)Nc1cc(C)on1 (configuration not stated) | inconclusive [activator, single point] | –
26 | COCCOC(=O)C1=C(C)NC2=C(C(=O)CC(C)(C)C2)C1c1ccc2c(c1)OCO2 (configuration not stated) | inactive | –
27 | Cn1c(SCC(=O)NCc2ccc3c(c2)OCO3)nc2scc(-c3cccs3)c2c1=O | inconclusive [activator, single point] | –
28 | Cc1ccc(S(=O)(=O)N2CCN(c3ncnc4c3cnn4-c3ccccc3)CC2)cc1 | inconclusive [activator, single point] | –
29 | COc1ccc(S(=O)(=O)N2CCC(C(=O)N3CCCC3)CC2)cc1 | inconclusive [activator, single point] | –
30 | O=C(CCNS(=O)(=O)c1cccc2nsnc12)NCCc1ccccc1 | inconclusive [activator, single point] | –
31 | C=CCn1c(SCC(=O)/C(C#N)=C(\C)N)nnc1C1CCCCC1 | inactive | –
32 | O=C1Nc2ccccc2C1(O)Cc1ccncc1 (configuration not stated) | inactive | –
33 | C=C1C(=O)C=C2CN(C(=O)c3ccccc3)[C@@](Cc3ccc(OC)cc3)(C(=O)OC)[C@@H]12 | inconclusive [activator, single point] | –
34 | COc1ccc(NC(=O)N2CC3(CCN(C(=O)c4ccncc4)CC3)C2)cc1 | inconclusive [activator, single point] | –
35 | Cc1ccc(SCc2nc(-c3ccccn3)no2)cc1 | inactive | –
36 | COc1ccc(CN2C(=O)CCC2(C)C(=O)NC2CCCC2)c(OC)c1 (configuration not stated) | inconclusive [activator, single point] | –
37 | CC1CCN(c2nc3c(c(=O)[nH]c(=O)n3C)n2Cc2ccccc2)CC1 | inconclusive [activator, single point] | –
38 | Clc1cccc(-c2nnc(SCc3nc4ccccc4[nH]3)n2Cc2ccco2)c1 | inconclusive [activator, partial curve] | –
39 | Cc1cc(C)cc(N(CC(=O)Nc2cccc(C)n2)S(=O)(=O)c2c(C)noc2C)c1 | inconclusive [activator, partial curve] | –
40 | CC(C)C[C@@H](CC(=O)N[C@@H](CCC(=O)O)CC(=O)O)NC(=O)[C@@H]1CCCC[C@H]1NC(=O)C[C@H](CCCN)NC(=O)C[C@H](Cc1ccccc1)NC(=O)[C@@H]1CCCC[C@H]1N | inactive | –
41 | c1ccc(COn2nnc3ccccc32)c(COn2nnc3ccccc32)c1 | active: 25.1 µM | –
42 | CCc1ccc(NC(=O)c2cc(C)on2)cc1 | inactive | –
43 | CC(C(=O)NC1CCCC1)N(Cc1ccc2c(c1)OCO2)C(=O)c1snc(C(N)=O)c1N (configuration not stated) | inactive | –
44 | CN(C)c1ncc2nc(-c3ccc(F)cc3)c(=O)n(CCc3ccccc3)c2n1 | inconclusive [activator, single point] | –
45 | Cc1ccc(C(=O)NC2CCCCCC2)o1 | inactive | –
46 | Cc1cc(Oc2ccc(-c3ccccc3)cc2)nc(N2CCOCC2)n1 | inconclusive [activator, partial curve] | –

Row | Compound | Potency | activation
47 | Cc1ccnc(N2CCCC(C(=O)Nc3cc(F)ccc3C)C2)n1 (configuration not stated) | inconclusive [activator, partial curve] | –
48 | COc1cc(C(c2nnnn2C2CCCC2)N2CCc3ccccc3C2)ccc1O (configuration not stated) | inconclusive [activator, single point] | –
49 | COC(=O)c1ccc(NC(=O)c2ccccc2NS(C)(=O)=O)cc1 | inactive | –
50 | O=C(CN1CCOCC1)Nc1ccc(Br)cn1 | inconclusive [activator, single point] | –
51 | CCCc1cc(-c2ccc(O)c(OCC)c2)c(C#N)c(N)n1 | inconclusive [activator, partial curve] | –
52 | CCOC(=O)CCN1C(=O)[C@H]2[C@H]3[C@H](O)[C@H](O)C/C(=N/OCC(C)C)[C@H]3CC[C@@H]2C1=O | – | inactive: -3.72% [at 11.4 µM]
53 | Ic1ccc2c(c1)N(c1ccccc1)c1cc(Nc3ccc4nc5ccc(I)cc5[n+](-c5ccccc5)c4c3)ccc1N2 | – | inactive: -0.815% [at 11.4 µM]
54 | COc1cccc(Cn2c(=O)cnc3cnc(Nc4cccc(OC)c4)nc32)c1 | inconclusive [activator, single point] | –
55 | Cc1ccc(-c2noc(CCC(=O)NCCN3CCc4ccccc4C3)n2)cc1 | inconclusive [activator, single point] | –
56 | N#CC1=C(SCC(=O)NC2CC2)NC(=O)C(C#N)C12CCCCC2 (configuration not stated) | inactive | –
57 | CC1(C)Cc2c(sc3c2c(=N)n(Cc2ccco2)c(=O)n3Cc2ccc(F)cc2)CO1 | inconclusive [activator, single point] | –
58 | Cc1ccc(-n2c(SCC3CCCCO3)nnc2-c2ccco2)cc1 (configuration not stated) | inconclusive [activator, single point] | –
59 | CCOC(=O)c1cc2sccc2n1Cc1ccc(C#N)cc1 | active: 15.8 µM | –
60 | COc1cc2c(cc1OC)C1Cc3ccc(OC)c(OC)c3CN1CC2 (configuration not stated) | inconclusive [activator, single point] | –
61 | COC(=O)C1=C(C)N(Cc2ccccc2)C2=C(C(C)=O)C[C@@](O)(C(=O)OC)C(=O)N2C1c1ccccc1 (some centres not stated) | – | inactive: 16.6% [at 11.4 µM] and inactive: 19.2% [at 11.4 µM]
62 | Cc1ccc(CSc2nnc(-c3cccs3)n2C)cc1 | inactive | –
63 | COC(=O)c1[nH]c2c(c1C)C(=O)CC(c1cc(OC)ccc1OC)C2 (configuration not stated) | inconclusive [activator, partial curve] | –
64 | CCOC(=O)/C=C1\SCC(=O)N1CCOc1cccc(Br)c1 | inconclusive [activator, single point] | –
65 | Cc1ccc2nc(NC(=O)CN(C)S(=O)(=O)c3cccc4nsnc34)sc2c1 | inconclusive [activator, full curve, poor fit] | –
66 | CCOC(=O)c1c(NC(=O)CSc2nnc(-c3ccco3)o2)sc(C(C)=O)c1C | inconclusive [activator, partial curve] | –
67 | COc1ccc(N(C(=O)c2ccco2)C(C(=O)NC2CCCC2)c2ccc(N(C)C)cc2)cc1OC (configuration not stated) | inactive | –
